# Assay results from PubChem BioAssay AID540267 (National Center for Advancing Translational Sciences (NCATS), 2011).
# About 530 (0.16%) of roughly 340,000 compounds were called active. Inconclusive results, whose numbers are uncertain, are shown with a selection of clear calls. No stated cut-off is given here; in the data, active means activity change below about -80%; inconclusive means between about -30% and that limit; inactive means weaker than that.
# Assay: Small Molecules that selectively kill Giardia lamblia: qHTS;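 further: parasites exposed to compound for two days anaerobically before the ATP read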
# Conditions: Giardia lamblia trophozoite viability; at 7.66 µM; stronger effect = lower value
# How it was run: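 Each well holds 100 Giardia trophozoites and compound. After two days (48 hrs) at 37 deg C in anaerobic conditions, ATP is quantified by luminescence.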
# On the % scale 0 is the no-effect control and ±100 the full control effect.
row,Compound,activity change
1,Nc1nonc1NN=C1CCCCC1,inactive: 13.3%
2,CCOC(=O)C(=CNc1ccc(NC2=NCC(C)S2)cc1)C(=O)OCC (configuration not stated),inactive: -1.27%
3,Cc1cc(C)c(NC(=O)c2cccc(NC(=O)c3ccco3)c2)c(C)c1,inconclusive: -37.7% [inhibitor]
4,O=C1c2ccccc2C(O)N1Cc1ccco1 (configuration not stated),inconclusive: -36.2% [inhibitor]
5,Cc1ccn2c(-c3csc(NCc4ccco4)n3)c(C)nc2c1,inconclusive: -31.1% [inhibitor]
6,Cc1cccc(-c2onc3ccc(C4(C)OCCO4)cc23)c1,inconclusive: -32.1% [inhibitor]
7,OCc1ccc2c(c1)c(-c1ccc3c(c1)OCCO3)c(-c1ccccc1)n2-c1ccccc1,inactive: -8.64%
8,CCn1c(C)nc2cc(-c3nc4n(n3)Cc3ccccc3-4)ccc21,active: -105%
9,Cc1ccc(C(=O)Nc2nc3c(s2)CCCC3)o1,inconclusive: -32% [inhibitor]
10,Cc1cc(C(C)(C)C)cc(C)c1COC(=O)CN1C(=O)NC2(CCCC2)C1=O,inconclusive: -37.8% [inhibitor]
11,Cc1c(OCC(=O)NCCN2CCOCC2)ccc2c(-c3ccccc3)cc(=O)oc12,inconclusive: -38% [inhibitor]
12,c1ccc2[nH]c(-c3cnco3)cc2c1,inconclusive: -30.2% [inhibitor]
13,Cc1oc2cc([N+](=O)[O-])c(O)c([N+](=O)[O-])c2c1C(=O)c1ccc(Br)cc1,inconclusive: -61.2% [inhibitor]
14,Cc1cccc(C(=O)Nc2sc(-c3ccccc3)cc2C(=O)O)c1,inconclusive: -42.9% [inhibitor]
15,O=C(O)c1ccc(NC(=O)c2cc3ccccc3o2)cc1,inconclusive: -48.7% [inhibitor]
16,Cc1ccccc1OCC(=O)OC1CCN(C)CC1,inconclusive: -35.6% [inhibitor]
17,CCNc1cccc2c1C(=O)N(C)C2=O,inactive: -8.83%
18,CC1(C)CC(=O)CC(C2(O)C(=O)N(Cc3ccccc3)c3ccccc32)O1 (configuration not stated),inconclusive: -34.5% [inhibitor]
19,O=C(Cc1ccc(F)cc1)Nc1nnc(SCC(=O)NC2CCCC2)s1,inactive: -11.6%
20,Cc1c(C(=O)O)sc2nc(SCC(=O)Nc3ccc(S(=O)(=O)NC(C)(C)C)cc3)[nH]c(=O)c12,inconclusive: -50.7% [inhibitor]
21,CCCc1cc(C(=O)Cc2nc3ccccc3s2)c(O)cc1O,inconclusive: -35% [inhibitor]
22,O=C(NCc1ccccc1C(F)(F)F)c1cccc2c1C(=O)c1ccc(N3CCOCC3)cc1S2(=O)=O,inconclusive: -39.5% [inhibitor]
23,COc1ccccc1NC(=S)NCc1cccs1,inactive: -18.5%
24,O=C(CSc1nnc(-c2ccc(O)cc2)o1)Nc1ccccc1Br,inactive: -9.62%
25,CCN(CC(=O)Nc1ccc2c(c1)OCCO2)C(=O)c1ccccc1Br,inconclusive: -38.9% [inhibitor]
26,Cc1ccc(OCC(=O)Nc2ccc3c(c2)OCO3)c(C)c1,inconclusive: -35.2% [inhibitor]

row,Compound,activity change
1,CC(=O)N1CCc2cc(NC(=O)c3ccc(C)cc3)ccc21,inconclusive: -36.6% [inhibitor]
2,CC(=O)c1cccc(NC(=S)NC2CCCCCCC2)c1,inconclusive: -30.4% [inhibitor]
3,CN(C)C(CNC(=O)c1cccs1)c1ccco1 (configuration not stated),inconclusive: -38.9% [inhibitor]
4,C[C@H]1[C@H]2c3nc4ccccc4n3C[C@H]1ON2C1CCCCC1,inconclusive: -44.6% [inhibitor]
5,O=C(C1CCC(CNS(=O)(=O)c2cccc3nsnc23)CC1)N1CC=C(c2ccccc2)CC1 (configuration not stated),inactive: -7.31%
6,COc1ccc(-c2cc(-c3ccccc3)c(C#N)c(SCC(=O)Nc3ncc(C)s3)n2)cc1,inactive: -19.5%
7,CC(=NCc1ccco1)c1c(C)[nH]n(-c2nc3ccccc3s2)c1=O,inconclusive: -40.1% [inhibitor]
8,CC(=O)Nc1ccc(S(=O)(=O)Nc2cc(S(=O)(=O)N3CCCCC3)ccc2O)cc1,inconclusive: -33.4% [inhibitor]
9,COC(=O)C1(CC2CC(c3ccncc3)=NO2)CCN(C(=O)OC(C)(C)C)CC1 (configuration not stated),inconclusive: -32.5% [inhibitor]
10,COc1ccccc1-c1coc2cc(OC(=O)N3CCOCC3)ccc2c1=O,inconclusive: -34.7% [inhibitor]
11,Cc1cc(C)c2sc(NC(=O)c3ccc([N+](=O)[O-])o3)nc2c1,active: -81.2%
12,CCOc1ccc(NC(=O)CN2C(=O)COc3ccc(Cl)cc32)cc1,inconclusive: -33.4% [inhibitor]
13,CC(=O)NNc1ncnc2ccccc12,inconclusive: -30.6% [inhibitor]
14,CC(C)N(Cc1ccccc1)C(=O)/C=C/c1ccccc1[N+](=O)[O-],inconclusive: -44.9% [inhibitor]
15,CC1CCc2cc(F)ccc2N1C(=O)CSc1nnc2c3cc(F)ccc3n(C)c2n1 (configuration not stated),inconclusive: -31.1% [inhibitor]
16,Fc1ccc(/C=C/c2nnc(-c3cccs3)o2)cc1,inconclusive: -34.5% [inhibitor]
17,CN(C)c1ccc(N2[C@@H](CC(=O)O)c3cc(C(F)(F)F)ccc3S2(=O)=O)cc1,inconclusive: -31.4% [inhibitor]
18,Cc1ccc(-n2nc(C)c3c(C)c(CCC(=O)NCc4ccco4)c(C)nc32)cc1,inactive: 3.68%
19,CCOC(=O)NC(=O)/C(C#N)=C\Nc1sccc1C(=O)OC,inconclusive: -36.5% [inhibitor]
20,Cc1c(CNC(=O)c2c([N+](=O)[O-])cnn2C)cnn1C,inconclusive: -35.6% [inhibitor]
21,CCCN(Cc1nnc(-c2cccs2)o1)C(=O)c1cccc(S(=O)(=O)N2CCOCC2)c1,inactive: -10.9%
22,COc1ccccc1CNC(=O)CN(Cc1ccc(Cl)cc1)S(C)(=O)=O,inactive: -6.4%
23,CCOc1ccc(NC(=O)CSC2=NCCN2)cc1,inconclusive: -31.6% [inhibitor]
24,O=C(C1CCC(CNc2nc(=S)[nH]c3ccccc23)CC1)N1CCN(c2ccccn2)CC1 (configuration not stated),inactive: -7.65%
25,CSc1ccccc1NC(=O)CN(C)C(=O)c1ccc(NC(=O)c2cccs2)cc1,inconclusive: -32.2% [inhibitor]
26,O=C1C(c2ccnc3ccccc23)=C(O)c2ccccc21,inconclusive: -71.7% [inhibitor]

row,Compound,activity change
1,CC(=O)C(CC(=O)N1CCCC1)C(=O)Nc1ccc(Cl)cc1 (configuration not stated),inconclusive: -32.4% [inhibitor]
2,O=C1CC[C@@H]2CC3(C[C@@H]4CCN1[C@H]24)Nc1cc([N+](=O)[O-])ccc1NC3=NC1CCCCC1 (some centres not stated),inconclusive: -31.3% [inhibitor]
3,O=S(=O)(NCCN1CCOCC1)c1cccs1,inconclusive: -43.2% [inhibitor]
4,CCN1CCN(C(=O)c2cc3c(s2)-c2ccccc2S(=O)(=O)C3)CC1,inconclusive: -36.7% [inhibitor]
5,Cc1cccn2c(=O)c(/C=C(\C#N)C(=O)NCc3ccco3)c(N3CCCCCC3)nc12,inactive: -11.2%
6,O=c1c2ccccc2nc(-c2ccco2)n1Cc1ccccc1,inactive: 4.88%
7,Cc1nc2cc(-c3ccccc3)sc2c(=O)n1N,inconclusive: -34% [inhibitor]
8,CN(Cc1ccccc1)C(=O)c1[nH]cnc1C(=O)NC1CCN(C(=O)OC(C)(C)C)CC1,inconclusive: -39.8% [inhibitor]
9,COc1ccc(-c2cc(=O)oc3cc(OCC(=O)NCCCn4ccnc4)ccc23)cc1,inconclusive: -37.9% [inhibitor]
10,O=C(Nc1ncccc1Cl)c1cc2ccccc2o1,inconclusive: -31.9% [inhibitor]
11,Cc1nc2c(-c3ccc(Cl)cc3)cnn2c(N)c1-c1ccc(F)cc1,inconclusive: -30.7% [inhibitor]
12,CCCOc1cccc(C2C(C(=O)c3ccc(C)o3)=C(O)C(=O)N2c2nc(C)c(C(C)=O)s2)c1 (configuration not stated),inactive: -1.37%
13,Cc1cc(C(=O)N/N=C/c2ccc([N+](=O)[O-])o2)c(C)o1,active: -96.8%
14,Cc1ccc(N(CC(=O)Nc2ccc(S(=O)(=O)N3CCOCC3)cc2)S(C)(=O)=O)cc1C,inactive: -11%
15,Cc1cc(=O)[nH]c(N/N=C/c2c(C)nn(-c3ccccc3)c2C)n1,inactive: -12.7%
16,COCCCNC(=O)C[C@H]1C[C@H](C(=O)N2CCCCC2)[C@@]2(CCc3ccccc3)c3[nH]c4ccc(Cl)cc4c3CCN2C1=O,inconclusive: -35% [inhibitor]
17,CCOC(=O)c1ccc(NC(=O)COC(=O)c2cccc(Oc3ccccc3)c2)cc1,inconclusive: -34.1% [inhibitor]
18,CCN(C(=O)N(CC)c1ccccc1)c1ccccc1,inconclusive: -51% [inhibitor]
19,Cc1ccccc1CN1CCCOCCS1(=O)=O,inconclusive: -33.4% [inhibitor]
20,Cc1nn(-c2ccccc2)c(C)c1/C=N/NC(=O)CSc1nnc(-c2ccccc2)n1-c1ccc(Cl)cc1,inactive: -8.15%
21,O=S(=O)(c1ccccc1S(=O)(=O)N1CCCCC1)N1CCCCC1,inactive: 2.51%
22,COc1ccc(-c2csc(/C(C#N)=C\c3ccc(O)c([N+](=O)[O-])c3)n2)cc1OC,inconclusive: -43.7% [inhibitor]
23,CCCCNC(=S)Nc1cc(S(=O)(=O)N2CCCCC2)ccc1C,inactive: -1.72%
24,COC(CNC(=O)c1coc2nc3ccccc3nc12)OC,inconclusive: -39.3% [inhibitor]
25,COc1cc(Nc2ccccc2Cl)c([N+](=O)[O-])nc1[N+](=O)[O-],inactive: -25.9%
